# Where a structure was tested more than once in an assay, its records may differ in their call.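 Interpretation: 100, growth as untreated; towards 0, rising growth inhibition; 0, no net growth; 0 to -100, cell death. Compounds scoring below 10 were considered active.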 The source holds more than one record for some entries. They are shown here; other results are not. The source may hold further records. These are repeated runs of one drug, at the concentration stated with the values; one value stands for one run. Counts like (3×) stand for listed records that agree.
# Tested on: SF-539 CNS
# Test: NCI-60 one-dose screen, 48 h (100 = growth as untreated, 0 = no growth, -100 = all killed)
# Details: 0.25 µM
structure (smiles),measurement,setting,value
COc1cccc2c1C(=O)c1c(O)c3c(c(O)c1C2=O)C[C@@](O)(C(=O)CO)C[C@@H]3OC1CC(N)C(O)C(C)O1 (stereo not given in full),growth,runs of 2006,"active: -15.8%, -0.894%"
same,growth,runs of 2007,"inactive: 12, 32.8, 12.1, 10.3, 18.6, 17, 13.9, 20, 18.3, 16.9, 31.2, 22.2, 17.8 (2×), 26.9, 34.4, 25.3, 29.1, 24.7, 12.4, 31.7, 53.9, 56.5, 25 (2×), 38.2, 30.2, 34, 28.2, 35, 27.8, 54.5, 50.7, 28.3, 15.1, 15.6, 23.4, 24.2% and active: 7.85, 3.94, 4.7, 6.14%"
same,growth,runs of 2008,"inactive: 32.6 (2×), 36.3, 42.1, 36.6, 25.5, 35.4, 28.5, 32.4, 33.4, 41.1 (2×), 45.8, 48.1, 21.5 (2×), 16.6, 15.8 (2×), 23.3, 22.4 (2×), 14.8, 32, 13.7, 89.2, 21.8, 10, 12, 14.7, 22, 41.7, 39.4, 24.8, 30.8, 30.9, 31.3, 23.7, 18.8, 24.5% and active: 3.44, 7.29, 7.12, 7.46, -10.9, 9.14, -20.5, 9.73, -8.81, -6.21, 9.26, -1.79%"
same,growth,runs of 2009,"inactive: 24.2, 20.1, 26.4, 24.4, 21.9, 24.8, 16.4, 22.2, 16.7, 12.8, 21.2, 16.5 (2×), 18 (2×), 15.1, 11, 12.2, 20.9, 13.7, 11.6, 20, 14.8, 14.1, 10.6, 16.9, 15, 12.9, 31.1, 26.1, 30, 29.8, 22 (2×), 30.9, 17.4, 14.4, 23.2, 31.7, 42.9, 32.7, 34.6, 34.3, 36, 39.3, 39.4, 24.7 (2×), 13.8, 33.4, 29.5, 31.8, 46.8, 19.1, 19, 33.9, 23.8, 39.9, 33.1, 31.9, 17.8% and active: 6.52, 8.65, 9.36, 9.94, 9.8%"
same,growth,runs of 2010,"inactive: 23.6 (2×), 22.8, 19.5, 25.2, 27.6, 17.6, 37.1, 34.8, 31.4 (2×), 28.6, 29.2, 15.8, 25.7, 24.2, 17.4, 17.3, 25.8, 33.8, 23.5, 37.4, 10.3, 33.2, 42.9, 22.4, 27, 23.3, 24.3, 28.8, 26.2, 43.5, 23.2, 19.2 (3×), 22.2, 12.5, 16.6, 12.7, 31.2, 17, 15.2, 28.3 (2×), 23.1, 26.4, 24.8, 30.5% and active: 7.28%, 5.34%"
same,growth,runs of 2011,"inactive: 25 (2×), 22, 29.5 (2×), 24.3, 30.9, 12, 24.2 (3×), 25.5, 11.5, 32.6, 27.9, 26.1, 25.3 (2×), 29.7, 22.2 (2×), 27.1, 30.1, 21.5, 33.4 (2×), 20.5, 31, 32.3, 26.5, 37.4, 40.5, 39.2, 27.3, 15.6 (2×), 24.7 (2×), 21.4 (2×), 24.1, 14.1, 18.6 (2×), 21.7, 26.9, 18, 14.5, 18.8, 23.2, 19.6, 22.5, 27.6, 23.9, 31.2, 20.9% and active: 9.3%"
same,growth,runs of 2012,"inactive: 23.8, 25.9, 26, 31.9, 23.6 (2×), 23.1, 31.4 (2×), 32, 42.8, 30.1, 25.2, 29.7, 38.4, 24.8, 34, 40.4, 41.4, 37.1, 33.8, 17.6, 29.2, 33.1, 32.2 (2×), 40.2, 27.9, 25.6, 26.3, 28.5, 24.2, 29.9, 18.1, 16.7, 28 (2×), 33.6, 18.3, 24.9, 27.3, 39.1, 24.7, 38.1, 31.1, 35.4, 40.5, 52.1, 40.6, 42.4, 36.9, 33.3, 27.6 (2×), 34.5, 45.6, 50.7, 49.8, 36.6, 34.2, 32.1, 43.5, 27.2, 10.9, 13.9, 20.3, 18.8, 29.6, 44.1, 21.6, 19%"
same,growth,runs of 2013,"active: 2.01, -1.49, 9.59, 9.81, 1.62, -4.84, 4.06, 6.83, 9.77% and inactive: 20.3, 23.2, 17.4, 28.1, 42.5, 28 (2×), 29.6, 29.9, 38.9, 25.7, 30.6, 46.9, 25.3, 32.3, 22.3 (2×), 24.2, 27.5, 39.5, 24.1, 24.7, 31.1, 29.2, 21.7, 31 (2×), 29.4, 30.4, 25.9, 27.1, 38.6, 35.6, 50.3, 38.1, 43.1, 36, 39.2, 35.8, 47.9, 19, 24.6 (2×), 27.7, 42.9, 25.5, 37.9, 53.2, 50, 44.5, 28.2, 36.8, 50.5, 33, 45.8, 37.3, 27.3, 23, 32.5, 12.1, 12.4, 14.7, 13.5, 20.5, 13.9, 10.2, 11.1%"
same,growth,runs of 2014,"inactive: 15.6 (2×), 18.1 (2×), 11.7 (3×), 21.1, 16.4, 22.5, 30.3, 26.2, 24 (3×), 30.6, 25.9 (2×), 28.3, 28.1, 35.2, 12.5, 14.4, 18, 12.9 (2×), 15.8, 11.1, 14, 16.7, 15.2 (2×), 12.2, 13.8, 11.4, 14.5, 11.6, 10.1 (2×), 17.7, 21.7, 23.3, 27.6, 14.7, 22.1, 14.6, 13.5, 27.4, 26.1, 22.2, 23.4, 18.2, 23.2, 27.9, 24.6, 31.3, 21.4, 37, 28, 17.6, 23.9% and active: 5.62, 5.04, 7.57, 9.23, 3.37, 8.44, -0.962, 1.65, 3.42, 3.5, 5.86, 8.19, 0.707, 8.72, 7.54, 8.54%"
same,growth,runs of 2015,"inactive: 22.8, 24.5 (2×), 23.9 (2×), 23.8 (3×), 31.6, 21.7 (2×), 13.1, 18.4, 29.2, 29, 23.2, 39.6, 22.5 (2×), 14.8, 10.9, 11.7, 16, 26.3, 30.4 (2×), 24.4, 27.3 (2×), 27, 24.6, 31.7, 23, 22.9, 42.2, 33.9, 35.8, 20.6, 23.4 (2×), 23.6 (2×), 26, 30, 28.1, 28.8 (2×), 33.8, 22, 18, 11, 15.8, 20.2, 19.2, 16.7 (3×), 21.5 (2×), 25.8, 47.7, 21.1 (2×), 37, 27.1, 41.9, 34.6, 24.9 (2×), 33.1, 33.4 (2×), 32.9, 26.6, 28.6, 27.9, 34, 31.8 (2×), 32.1, 30.8, 25.3, 27.5, 20.9, 32.6% and active: 9.17%"
same,growth,runs of 2016,"inactive: 27.8, 26, 34.6, 33.6 (2×), 38, 54.2, 24 (3×), 25.7 (2×), 36 (2×), 29.7, 30.7 (2×), 27 (2×), 40.2, 31.3, 38.8, 34, 16.1, 33.5, 33.7, 23.1 (2×), 25.3, 30.5, 21.6, 28.4, 21.7, 21.8, 20.5, 26.4, 23.9, 26.2, 33.1, 32.5, 22.8, 33.4, 43.4, 43, 32.6, 41.1 (2×), 37.8, 33.8, 35.8, 34.1, 33.2, 25.8 (3×), 27.1, 24.9, 30.8, 29.1, 29.3, 37.1 (2×), 29.4, 26.3, 38.6, 31.1, 30.4, 29.8, 29.6, 36.8, 35.6, 37.9, 43.8, 43.5, 46, 42, 37.3, 28.5, 29, 37.4, 29.2, 30.1, 26.1, 31.2, 24.6, 32.3, 40.1%"
same,growth,runs of 2017,"inactive: 26.2, 31 (2×), 24.9, 27.8, 26.1 (2×), 27.4, 12.2, 19.2, 25.5, 28.8, 24.1, 24.4, 20.9, 20.1 (2×), 28.2, 30.3, 22.8, 13.4, 17.2, 18.2 (2×), 15.8, 14.6, 18.8, 22.1, 25.7, 16.8, 20.5 (3×), 22.3 (3×), 23.8 (2×), 19.7, 22.5, 25.6, 29.2 (2×), 25, 26.4, 24.7, 31.1, 34.4, 21.3 (2×), 15.6, 22.2, 29.5, 29.8, 18.4, 19.5, 29.9, 23.9, 21.8, 27.3 (2×), 22.9 (2×), 23.4, 31.7, 14.5, 13.5, 21.7, 30.2, 24, 37, 44.2, 26.5, 21.6, 26%"
same,growth,runs of 2018,"inactive: 34.3, 38.2, 25, 23.5, 37, 37.8 (2×), 26.4 (2×), 34.1, 30.7, 28.1, 27.3 (2×), 33.6, 42.4, 31.6, 29.2, 32.6 (2×), 23.9, 28.3, 21.8 (2×), 29.5, 23, 25.6, 26.1, 22, 24.7, 26.9, 22.2, 14.4, 19.7, 25.9, 28.4, 28.9, 31.7 (2×), 32.3, 28.8, 24.1, 35.3, 38, 27, 24.3, 31.2, 30.1, 31.9, 26.6, 37.2, 47.3, 37.4, 12.3, 15.4%"
same,growth,runs of 2019,"inactive: 14, 25.2, 14.1, 16.2, 27.9, 23.8 (2×), 16.8, 20.5, 26.1 (2×), 24.5, 36.5 (2×), 29.1, 29.7, 15.9, 18.1, 19.5, 13.7, 20.6, 21.8, 20.4, 27.1, 33.8, 21.7, 25.5, 26.2 (2×), 26.4 (2×), 31.1, 25.6, 26.5, 28.9, 23, 29.9, 25.7, 23.1, 24.1, 22, 24.4, 33.1, 20.9, 14.7, 24.2, 22.7% and active: 4.85%"
same,growth,runs of 2020,"inactive: 12.1, 26.1, 25, 21.2, 22.7, 24.2, 25.3, 25.5, 23.6, 21.6, 19, 22.1, 23.9, 38.8, 29.4 (2×), 28, 38.5, 38, 32.2, 30.9, 28.6, 33.5%"

# Reference: PubChem BioAssay (NCI)
